Laboratory results taken from PubChem BioAssay AID488969 (Vanderbilt High Throughput Screening Facility, 2010).
Over roughly 110,000 compounds, “z-score” has its median near -0.1; the highest 2% begin near 2. The list shows a part of the results.

Molecular target: Metabotropic glutamate receptor 8 (Rattus norvegicus) (UniProt P70579)
Assay: rat mGluR8 modulators via GIRK flux, primary screen, cell-based, thallium flux, HTS (AID 488969)
Conditions: HEK293 rat mGluR8, GIRK (G protein-gated inwardly rectifying potassium channel) thallium flux, FluoZin2; at 10 µM; stronger effect = higher value; submaximal glutamate (EC20) added with thallium

Chain of UniProt P70579 (P70579 whole entry, looked up): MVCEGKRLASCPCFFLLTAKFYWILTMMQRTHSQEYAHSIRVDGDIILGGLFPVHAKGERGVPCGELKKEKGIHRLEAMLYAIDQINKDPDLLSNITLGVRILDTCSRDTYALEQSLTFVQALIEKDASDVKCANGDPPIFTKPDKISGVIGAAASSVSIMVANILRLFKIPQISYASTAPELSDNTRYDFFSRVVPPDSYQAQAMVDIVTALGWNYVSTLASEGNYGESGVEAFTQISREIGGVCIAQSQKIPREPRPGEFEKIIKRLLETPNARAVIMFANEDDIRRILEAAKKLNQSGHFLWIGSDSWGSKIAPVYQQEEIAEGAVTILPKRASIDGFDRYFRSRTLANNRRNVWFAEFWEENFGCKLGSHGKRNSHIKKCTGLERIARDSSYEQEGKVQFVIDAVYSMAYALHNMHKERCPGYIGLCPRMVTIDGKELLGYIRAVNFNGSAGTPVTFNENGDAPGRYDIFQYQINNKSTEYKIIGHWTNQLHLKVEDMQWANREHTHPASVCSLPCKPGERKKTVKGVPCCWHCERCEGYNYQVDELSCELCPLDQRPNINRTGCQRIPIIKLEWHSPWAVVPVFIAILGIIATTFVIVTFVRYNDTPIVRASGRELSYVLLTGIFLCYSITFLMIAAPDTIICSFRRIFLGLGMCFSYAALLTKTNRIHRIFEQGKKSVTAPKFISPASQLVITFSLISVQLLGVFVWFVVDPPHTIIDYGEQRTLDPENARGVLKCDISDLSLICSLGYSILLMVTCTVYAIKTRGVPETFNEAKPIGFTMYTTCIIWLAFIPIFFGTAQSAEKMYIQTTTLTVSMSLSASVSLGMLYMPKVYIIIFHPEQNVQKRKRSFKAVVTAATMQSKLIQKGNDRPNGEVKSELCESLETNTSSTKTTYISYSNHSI

Compound	z-score
Cc1ccc2c(c1)N(CCC(=O)NCc1ccccn1)C(=O)CO2	0.652
O=C(NCc1cccnc1)C1CCCN(S(=O)(=O)c2ccc(Cl)cc2)C1 (stereo unspecified)	0.714
CCOC(=O)c1[nH]c2ccccc2c1NC(=O)C(C)(C)C	0.413
N#Cc1nc(COc2ccc(Cl)cc2)oc1N1CCN(Cc2ccccc2)CC1	0.521
CCN(CCCNC(=O)C1CCCN(S(=O)(=O)CC)C1)c1cccc(C)c1 (stereo unspecified)	-0.0948
CSc1cccc(NC(=O)c2c(Cl)cnn2C)c1	-0.0278
C/C(=C\C(=O)c1ccccc1)Nc1ccc2c(c1)OCO2	0.023
CCC(NS(=O)(=O)c1ccc(OC)cc1)C(=O)NCCC1=CCCCC1 (stereo unspecified)	-0.931
Cc1ccc(C)c(N2CCN(C(=O)Cc3ccc(-n4c(=O)[nH]c5ccsc5c4=O)cc3)CC2)c1	0.111
O=C(NCCCCNC(=O)c1ccc(Br)s1)c1ccc(Br)s1	0.224
O=C(/C=C/c1ccccc1Cl)NCCc1ccccc1	-0.1
COC(=O)c1cccnc1-n1c(=O)c2cccnc2n(Cc2cccc(OC)c2)c1=O	-0.124
CCO/C=C1\N=C(c2ccc(F)cc2)OC1=O	-0.109
O=C(CN1C(=O)c2ccccc2C1=O)NCCc1c[nH]c2ccc(Cl)cc12	-0.00708
CCOc1ccc(Oc2c(/C=N/NC(C)=O)c(C)nn2-c2ccccc2)cc1	-0.222
O=C(O)COc1ccc(Br)cc1/C=N/O	0.512
Cc1cc2nc(N)sc2cc1C	0.535
O=C1c2cccnc2C(=O)N1Cc1ccc(F)cc1	-0.357
Cc1ccc(-c2csc3ncnc(Oc4ccc5c(C)cc(=O)oc5c4)c23)cc1	-0.234

Compound	z-score
CCCOC(=O)Oc1ccc2c(=O)c(Oc3cc(C)cc(C)c3)coc2c1	-0.218
CCC(CC)=N/N=C/c1c(O)n(CC)c2cc(C3=NNC(=O)CC3)ccc12	-0.372
COc1ccccc1C(=O)Nc1c2c(nn1-c1cccc(C)c1C)CS(=O)(=O)C2	-0.999
Cc1cccc2[nH]c(-c3ccc(NC(=O)c4ccco4)cc3)nc12	-0.408
CCOC(=O)c1ccc(N2CCN(c3ccc(F)cc3)CC2)c(NC(=O)Nc2cccc(OC)c2)c1	-0.148
COc1cccc(/C=N/Nc2nn3cnnc3c3ccccc23)c1O	-0.377
CCCC(c1nnnn1CCc1ccccc1)N1CCN(C(=O)c2ccco2)CC1 (stereo unspecified)	-1.18
C=CCOc1c(CNc2cccc(C(=O)O)c2)cccc1OC	-0.325
O=C1c2ccccc2C(Nc2ccc3c(c2)OCCO3)N1Cc1ccccc1 (stereo unspecified)	-0.484
Cc1ccc2c(CN3CCCc4ccccc43)cc(=O)oc2c1C	0.351
CC/C(=N\NC(=O)c1csc(C)c1C)c1cccs1	1.32
Cn1c(=O)[nH]c(=O)c2c1nc(NCCCn1ccnc1)n2Cc1ccc(F)cc1	0.613
CCCN(CC1CC1)C(=O)COC(=O)c1[nH]c(C)c(C(=O)OCC)c1C	-0.372
Cc1ccc(NC(N)=S)cc1	-0.167
CCOC(=O)c1c2n(c3ccc(OC(C)=O)cc13)CCC2	-0.975
O=C(CSc1nc2ccc([N+](=O)[O-])cc2[nH]1)c1ccc2ccccc2c1	-0.117
O=C(Cn1cnc2ccccc21)N/N=C/c1ccc([N+](=O)[O-])cc1	-0.28
O=C(CSc1nnc(-c2cccnc2)s1)Nc1ccc(C(=O)O)cc1	-0.272
O=C(COC(=O)/C=C/c1ccc(Cl)cc1)NCCc1ccccc1	0.183

Compound	z-score
COc1ccc(-c2noc(-c3ccc(C)cc3)n2)cc1	-0.119
O=C1C(Nc2ccccc2)=C(NS(=O)(=O)c2ccccc2)C(=O)c2ccccc21	0.00433
COc1ccc(OC)c(C(c2nnnn2CCC(C)C)N2CCN(C(=O)c3ccco3)CC2)c1 (stereo unspecified)	0.439
N#Cc1c(N)nc2c(c1-c1ccncc1)CCCC2	-0.232
Cc1nc(NC(=O)c2oc3ccccc3c2C)sc1C(=O)N(C)C	0.47
COC(=O)CSc1nnc(-c2ccccc2OC)o1	-2.68
CCC(=O)N1CCN(c2cc(C)ccc2C)CC1	0.999
Cc1ccc(/C=C/C(=O)NCc2ccncc2)cc1	-0.406
CCCC(=O)NC(=S)Nc1nc(-c2ccc(OC)cc2)cs1	0.0021
O=C(Nc1cnccn1)C1c2ccccc2Oc2ccccc21	-0.0615
CC1CCC2(CC1)NC(=O)N(CC(=O)c1cccn1C)C2=O (stereo unspecified)	0.0445
CC1(C)CC(=NOC(=O)c2ccccc2)CC(C)(C)N1	-0.0122
CN(C)S(=O)(=O)Nc1ccc(Oc2ccccc2)cc1	0.226
CCOc1ccccc1C(=O)N(CN1CCCC1=O)c1ccc(C)c(Cl)c1	0.589
Cc1ccc(NC(=O)COC(=O)Cn2c(C)csc2=O)cc1C	1.02
O=C(NC1CCCC1)C(Cc1ccccc1)n1cccc1 (stereo unspecified)	0.182
C=CCNC(=S)NNC(=O)c1ccc(Br)cc1	1.01
COc1ccc(CCNC(=O)C2CCN(C(=O)NC3CCCCC3)CC2)cc1	-0.187
